Laboratory results reported in paper PMC4336329 (PLoS ONE, 2015).
The whole screen tested about 310,000 compounds, of which about 14,000 (4.5%) showed an effect of 50% or more. The effect is printed as a negative number. This is one part of the list.

biological target: human ether-à-go-go-related gene (hERG) potassium channel (human, UniProt Q12809); experiment: primary screen, population patch clamp on CHO cells stably expressing hERG
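Also: peak tail current of the secondary pulse compared with the same well before compound.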

human ether-à-go-go-related gene (hERG) potassium channel, sequence (Q12809 whole entry, looked up): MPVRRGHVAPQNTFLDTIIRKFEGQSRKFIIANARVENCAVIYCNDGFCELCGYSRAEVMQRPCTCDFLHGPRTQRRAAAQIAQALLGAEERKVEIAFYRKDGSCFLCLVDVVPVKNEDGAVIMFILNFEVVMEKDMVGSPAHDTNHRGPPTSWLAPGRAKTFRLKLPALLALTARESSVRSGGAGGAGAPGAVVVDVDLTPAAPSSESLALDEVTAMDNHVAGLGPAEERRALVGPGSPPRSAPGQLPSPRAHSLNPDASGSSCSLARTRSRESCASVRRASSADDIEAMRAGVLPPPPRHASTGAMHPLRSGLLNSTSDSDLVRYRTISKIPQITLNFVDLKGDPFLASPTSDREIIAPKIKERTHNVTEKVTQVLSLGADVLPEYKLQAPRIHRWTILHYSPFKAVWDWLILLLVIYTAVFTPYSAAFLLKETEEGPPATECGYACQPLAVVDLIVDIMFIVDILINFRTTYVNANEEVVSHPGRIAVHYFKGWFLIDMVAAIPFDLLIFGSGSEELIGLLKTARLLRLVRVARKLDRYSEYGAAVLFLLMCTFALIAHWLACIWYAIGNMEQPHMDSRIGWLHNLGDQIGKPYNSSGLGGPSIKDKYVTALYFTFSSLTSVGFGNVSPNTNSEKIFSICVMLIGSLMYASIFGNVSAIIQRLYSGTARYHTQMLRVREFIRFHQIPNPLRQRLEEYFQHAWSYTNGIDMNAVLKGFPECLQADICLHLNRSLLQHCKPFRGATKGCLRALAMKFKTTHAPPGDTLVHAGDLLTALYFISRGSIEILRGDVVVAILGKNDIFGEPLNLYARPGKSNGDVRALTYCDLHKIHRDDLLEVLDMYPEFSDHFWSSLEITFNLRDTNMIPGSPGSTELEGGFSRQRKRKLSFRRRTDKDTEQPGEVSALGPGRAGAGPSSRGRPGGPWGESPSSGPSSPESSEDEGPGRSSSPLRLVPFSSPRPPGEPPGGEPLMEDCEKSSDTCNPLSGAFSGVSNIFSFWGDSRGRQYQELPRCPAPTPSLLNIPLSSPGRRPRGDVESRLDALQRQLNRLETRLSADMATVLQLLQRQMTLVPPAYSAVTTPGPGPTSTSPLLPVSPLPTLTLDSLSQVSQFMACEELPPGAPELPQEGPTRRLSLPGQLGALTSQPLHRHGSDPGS

Compound	hERG current change (%, negative = inhibition) at 10uM [%]
COc1cccc(NC(=O)NCc2c(-c3ccccc3)noc2C)c1	-15.7
O=C(Nc1nccs1)c1cccc(N2C(=O)C3C4C=CC(C4)C3C2=O)c1 (stereo not shown)	-28.9
CN(CCOc1cccc(C(F)(F)F)c1)Cc1ccccc1.O=C(O)C(=O)O	-5.64
CSc1ccccc1C(=O)Nc1ccc2c(c1)OCCO2	2.01
COc1ccc(-c2cccc(NS(=O)(=O)c3cc([N+](=O)[O-])c(C)c([N+](=O)[O-])c3)c2)nn1	-29.6
COc1cc(CC(=O)Nc2ncc(C)s2)cc(OC)c1OC	19.2
CCOC(=O)c1cc2c(ccn2C)n1CC(=O)N1CCN(c2ccccc2)CC1	-5.78
COc1cc(C2NC(=O)NC(c3ccccc3)=C2C(C)=O)cc([N+](=O)[O-])c1O (stereo not shown)	8.89
COc1ccc(CCNC(=O)C2CCC(=O)N(CCc3ccc(OC)cc3)C2)cc1 (stereo not shown)	-18.3
O=C(O)c1ccc2c(=O)n3c(nc2c1)/C(=C/c1ccc(Cl)c([N+](=O)[O-])c1)CC3	21.3
O=[N+]([O-])c1cc(C(F)(F)F)ccc1NC1CCN(Cc2ccccc2)C1 (stereo not shown)	-66.6
CCCOC(=O)CN1C(=O)c2ccccc2C1=O	10.4
O=C(NNC(=O)C1CCCN(S(=O)(=O)c2cccc(F)c2)C1)C1CC1 (stereo not shown)	49.8
Cc1c(Br)c([N+](=O)[O-])nn1C(C)C(=O)NCC1CCCO1 (stereo not shown)	1.09
COc1ccc(OC)c(C2NC(=O)NC(C)=C2C(=O)Nc2ccc(C)cc2)c1 (stereo not shown)	5.98
CCOc1ccc(C(CCc2ccccc2)NC(=O)c2ccccc2)cc1OCC (stereo not shown)	-19.1
COc1ccc(CNS(=O)(=O)NCc2ccccc2F)cc1	4.01
CC(C)CN(CC(C)C)C(=O)COc1ccccc1C(N)=O	7.55
COc1cc(/C=N/n2c(C)nc3ccccc3c2=O)cc(OC)c1O	11
C=CCC(Nc1ccccc1)c1ccc(OC)c(OC)c1 (stereo not shown)	0.147
C=CCSc1ncccc1C(=O)NCCc1ccc(Cl)cc1	6.54
COc1ccc(N2C(=O)/C(=C/c3ccco3)C(=O)NC2=S)cc1	24.1

Compound	hERG current change (%, negative = inhibition) at 10uM [%]
COc1cccc(N2C(=NC(=O)CCC3CCCC3)SC3CS(=O)(=O)CC32)c1 (stereo not shown)	7.31
Cc1cc(C)c(C#N)c(SCCN2CCCCC2)n1	-24.6
O=S(=O)(c1ccc(NCc2ccccc2)cc1)N1CCOCC1	15.2
CC1CCCC(NC(=O)COC(=O)[C@@H]2CC(O)CN2S(=O)(=O)c2ccc3c(c2)OCCO3)C1C (stereo partly shown)	7.25
CC(C)CC(=O)Nc1c(C(=O)N2CCN(Cc3ccccc3)CC2)oc2ccccc12	-20.9
NNC(=O)CNC(c1ccccc1)c1cc(Cl)ccc1NC(=O)c1ccccc1 (stereo not shown)	3.51
COc1cc2sc(C)nc2cc1C	36.8
CCC(C)N(C(=O)c1csnn1)C(C(=O)NC1CCCC1)c1ccccc1F (stereo not shown)	-14.8
O=C1/C(=C/c2cccc3ccccc23)CCCc2ccccc21	9.31
CN(C)C(=O)CSc1nc(-c2cccs2)c(-c2cccs2)[nH]1	-3.1
COc1ccc(S(=O)(=O)N2CCOCC2)cc1NC(=O)CSc1ncnc2ccccc12	-50.4
O=C(CNS(=O)(=O)c1ccc(Br)s1)NCCc1ccc(Cl)cc1	23.6
O=C(COC(=O)c1ccc2ncsc2c1)NCc1ccc(F)cc1	-7.29
CCS(=O)(=O)N1CCN(S(=O)(=O)c2ccc(S(=O)(=O)NC3CC3)cc2)CC1	-2.2
COc1ccc(S(=O)(=O)N2CCCCC2)cc1NC(=O)C1CC(=O)N(Cc2ccccc2)C1 (stereo not shown)	-44.3
CCN1CCCC1Cn1cnc2c([nH]c3ccc(Cl)cc32)c1=O (stereo not shown)	-76.5
Cc1ccc(S(=O)(=O)N2CCC(=O)N(CCOC(=O)Nc3ccc(C)c(C)c3)CC2)cc1	-48.9
COc1ccc(C(C)C)cc1S(=O)(=O)NCCCn1ccnc1	-9.79
C=CCn1c(SCCOc2ccccc2)nnc1C(C)NC(=O)c1ccccc1 (stereo not shown)	1.61
CN1C(C(=O)NCc2cccc(Br)c2)CC2Cn3c(nc4ccccc43)C21 (stereo not shown)	-67.7
CC(C)C(NC(=O)c1ccco1)C(=O)OCC(=O)Nc1ccc(C(N)=O)cc1 (stereo not shown)	6.33
CCOc1nc(Nc2ccc(F)cc2)nc(N2CCN(c3ccc(OC)cc3)CC2)n1	-14.7

Compound	hERG current change (%, negative = inhibition) at 10uM [%]
O=C1C2C3c4ccccc4C(c4ccccc43)[C@@H]2C(=O)N1c1ccccn1 (stereo partly shown)	5.6
COc1ccc(CCNS(=O)(=O)c2cccc3nsnc23)cc1OC	-12.3
CC(C)(C)c1ccc(-c2nc3cc(N)ccc3o2)cc1	20.9
Cc1cc(C)n(-c2nc(SCC(=O)N3CCCC3)c3c4c(sc3n2)CCCC4)n1	-9.29
COc1ccc(-n2cc3ccc([N+](=O)[O-])cc3n2)cc1	7.2
Cc1nnc(SCC(=O)Nc2ccccc2NC(=O)CSc2nnc(C)s2)s1	15.2
COc1ccccc1N(C)S(=O)(=O)c1ccc(C(=O)Nc2nccs2)cc1	-30.5
CC(C)C(C(=O)OCC(=O)c1cccc([N+](=O)[O-])c1)N1C(=O)[C@@H]2[C@H]3CC[C@H](C3)[C@@H]2C1=O (stereo partly shown)	-14.5
COc1cccc(CN(C)C(=O)c2cc(-c3cccs3)nc3ccccc23)c1	-2.81
O=C(O)c1cc(O)c2c(c1)C(=O)c1cccc(O)c1C2=O	14.6
O=C(O)c1cccc(NC(=O)c2ccc(S(=O)(=O)c3ccccc3)cc2)c1	0.846
Cc1ccc(Nc2nc(N)c3ccccc3n2)cc1Cl.Cl	9.26
CC(C)C(=O)Nc1nnc(CCc2nnc(NC(=O)C(C)C)s2)s1	8.56
Cc1ccc(S(=O)(=O)NNC(=O)C2Cc3c(ccc4ccccc34)O2)cc1 (stereo not shown)	10.1
CCOC(=O)c1ccccc1OCc1cc(/C=N/n2cnnc2)ccc1OC	-13.9
Cc1c(Cc2ccc3c(c2)OCO3)sc(NC(=O)C(C)(C)C)c1C#N	1.1
Cc1ccc(N2C(=O)[C@@H]3C(c4cccnc4)=NO[C@@H]3C2=O)cc1	8.88
Brc1ccc2ncnc(Nc3ccc(N4CCOCC4)cc3)c2c1	-22.5
CCOC(=O)c1c(CNc2ccncc2)n(C)c2cc(Br)c(O)cc12.Cl	18.8
CCCCNC(=S)NNC(=O)c1ccc(Br)o1	12.3
Cc1cc(N=NC(=O)c2ccccc2)ccc1O	4.74
CCc1cc2c(N3CCN(c4ccccc4)CC3)ncnc2s1	-43.5

Compound	hERG current change (%, negative = inhibition) at 10uM [%]
CC(NS(=O)(=O)c1cn(C)c(=O)n(C)c1=O)c1ccccc1 (stereo not shown)	-1.82
Cc1cc(C)n(-c2ccc([N+](=O)[O-])cc2)n1	1.56
COc1cccc(NC(=O)CN(C)C(=O)c2cc(-c3cccc(Br)c3)nc3ccccc23)c1	7.42
CC(=O)Nc1ccc(S(=O)(=O)NCc2ccc3[nH]c(C)cc3c2)cc1	21
O=C(Nc1ccc(C(=O)N2CCCC2)cc1)c1ccccc1F	-4.82
O=C1CCC([N+](=O)[O-])C(c2ccccc2Cl)N1 (stereo not shown)	6.99
COc1cccc(C2Nc3ccccc3C(=O)N2Cc2ccccc2)c1 (stereo not shown)	-33.5
CCOC(=O)c1c(-c2ccc(C)s2)csc1N	7.8
O=C(Nc1nc2ccccc2c(=O)s1)c1ccc(F)cc1Cl	15.3
COC(=O)c1cccc(-c2noc(-c3ccccc3F)n2)c1	21.5
CC(=O)Nc1nnc(/C=C/c2cccc([N+](=O)[O-])c2)s1	8.33
CC(C)c1ccc(NC(=O)CCCC(=O)NCCc2ccccc2)cc1	-4.28
Cc1cc(C)cc(NS(=O)(=O)c2ccc3c(c2)C(C)(C)C(=O)N3C)c1	-2.14
C=CCOc1ccccc1CN1CCC(n2nccc2NC(=O)C2CCOC2)CC1 (stereo not shown)	-21.5
O=S(=O)(NCC1CC1)c1ccc(F)c(Cl)c1	5.18
N#CC1(c2nc3ccccc3[nH]2)CC1c1ccc2c(c1)OCO2 (stereo not shown)	0.101
Cc1sc(NC(=O)c2ccccc2)c(C(=O)NCCN(C)C)c1C	-13.8
O=C(CN1CCOCC1)Nc1ccc(F)cc1	2.97
COc1ccccc1NS(=O)(=O)c1ccc2oc(SCc3ccc(C#N)cc3)nc2c1	-0.701
Br.CCCSc1ccc2nc(-c3ccccc3)cn2c1	-9.24
CCOC(=O)c1c(CN2CCN(CC#N)CC2)n(C)c2cc(Br)c(OC)cc12	10.9
C=CCC1(C(=O)N(C)Cc2ccccc2)CCN(C(=O)OC(C)(C)C)CC1	-15.6
